Assay results reported in the supplement of paper PMC12217912.
This is one part of the list. Sequences were assembled here from the parent chain. Values near 0.05 are background.

B1: TEV protease; numbered along this chain (parent)
chain: MGESLFKGPRDYNPISSSICHLTNESDGHTTSLYGIGFGPFIITNKHLFRRNNGTLVVQSLHGVFKVKDTTTLQQHLVDGRDMIIIRMPKDFPPFPQKLKFREPQREERICLVTTNFQTKSMSSMVSDTSCTFPSGDGIFWKHWIQTKDGQCGSPLVSTRDGFIVGIHSASNFTNTNNYFTSVPKNFMELLTNQEAQQWVSGWRLNADSVLWGGHKVFMVKPEEPFQPVKEATQL

Variants of: B1
Test: raw area under fraction-flipped curve 0-4 h after induction (AUC4h, not background-subtracted), DNA-recorder readout of cleavage of the substrate (dimensionless); higher = more cleavage of the substrate by the protease variant
Settings: temperature: 34 °C; time window: 0-4 h after rhamnose induction
Procedure: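 In vivo DNA recorder in E. coli TOP10(DE3) ΔrhaA at 34 °C. Each TEVp single-site mutant (parent TEVp 0) is paired with a single-site variant of the 7-mer TEVs (canonical ENLYFQ|S). The substrate sits between flexible linkers in a Bxb1-sfGFP-TEVs-SsrA fusion, so cleavage stabilises Bxb1 and speeds flipping of a recombination array, read by NGS. The value is the raw area under the fraction-flipped curve over 0-4 h after rhamnose induction (AUC4h), with ≥20 reads per time point. It is not background-subtracted; inactive controls average about 0.047.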
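Further: Bxb1 expression induced with 0.2% (w/v) L-rhamnose at OD600 near 0.5, cultures sampled hourly, flipped fraction per protease–substrate barcode pair counted by paired-end Illumina sequencing.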

| Variant | area with substrate ENLYAQS | area with substrate ENLYEQS | area with substrate ENLYGQS | area with substrate ENLYHQS | area with substrate ENLYIQS | area with substrate ENLYKQS | area with substrate ENLYMQS | area with substrate ENLYNQS | area with substrate ENLYPQS | area with substrate ENLYQQS | area with substrate ENLYRQS | area with substrate ENLYSQS | area with substrate ENLYWQS | area with substrate ENLYYQS | area with substrate ENLYCQS | area with substrate ENLYVQS | area with substrate ENLYDQS | area with substrate ENLYTQS | area with substrate ENLYLQS |
| --- | --- | --- | --- | --- | --- | --- | --- | --- | --- | --- | --- | --- | --- | --- | --- | --- | --- | --- | --- |
| F65M | 0.0741 | 0.0585 | 0.0758 | 0.0612 | 0.107 | 0.0407 | 0.0722 | 0.065 | 0.073 | 0.0523 | 0.0647 | 0.0605 | 0.0726 | 0.0568 |  |  |  |  |  |
| M122T | 0.0832 |  | 0.0652 |  |  | 0.0056 | 0.092 | 0.0587 |  |  |  | 0.0896 | 0.0807 | 0.0829 | 0.0783 | 0.142 |  |  |  |
| D11Y | 0.0669 | 0.0706 | 0.0741 | 0.0749 | 0.122 | 0.0665 | 0.0709 | 0.0699 | 0.0666 | 0.0697 | 0.0656 | 0.0772 | 0.0799 |  |  | 0.0961 | 0.0656 | 0.0697 |  |
| D79A | 0.0698 | 0.0644 | 0.0531 | 0.0622 | 0.103 | 0.0734 |  |  |  |  | 0.0534 |  | 0.0796 |  |  | 0.117 |  | 0.0271 | 0.0875 |
| K98T | 0.0812 | 0.07 | 0.0545 | 0.0698 | 0.0922 | 0.0837 | 0.0439 | 0.0701 | 0.0786 | 0.0561 | 0.0588 |  | 0.0656 |  | 0.0979 | 0.101 | 0.068 |  |  |
| K98G | 0.0837 | 0.0566 | 0.0632 | 0.0668 | 0.136 | 0.0531 | 0.08 | 0.0734 | 0.066 | 0.0628 | 0.0611 | 0.0748 | 0.0699 | 0.0981 | 0.089 | 0.102 | 0.0761 | 0.0692 |  |
| N206S | 0.0723 |  |  | 0.0614 |  | 0.0651 | 0.0824 |  |  | 0.0648 |  |  | 0.0837 | 0.0507 | 0.119 | 0.155 | 0.0623 |  | 0.0969 |
| H29S | 0.0694 | 0.0659 | 0.0695 | 0.0618 | 0.115 | 0.0586 | 0.0855 | 0.0586 | 0.0874 |  | 0.0645 | 0.0816 | 0.07 |  |  | 0.12 | 0.06 |  | 0.0848 |
| H29V | 0.0787 | 0.0702 | 0.0636 | 0.0628 | 0.142 | 0.0801 | 0.069 |  | 0.0792 | 0.0577 |  |  | 0.0584 |  |  | 0.162 | 0.0662 |  | 0.167 |
| I43W | 0.049 | 0.033 |  | 0.0441 | 0.0331 | 0.055 | 0.0616 | 0.026 | 0.047 | 0.0633 | 0.025 | 0.0537 | 0.0473 | 0.0633 |  | 0.0297 | 0.0412 | 0.0368 | 0.0998 |
| K46W | 0.063 | 0.0711 | 0.0569 | 0.0639 | 0.0447 | 0.0579 | 0.0603 | 0.0494 | 0.054 | 0.0545 | 0.0614 | 0.0725 | 0.0527 |  |  |  | 0.054 |  | 0.0503 |
| E25D | 0.0691 | 0.0462 | 0.0593 | 0.0649 | 0.117 | 0.0588 | 0.0767 | 0.0668 | 0.063 |  | 0.0684 | 0.0686 | 0.0887 |  | 0.0859 | 0.111 | 0.0616 |  | 0.113 |
| L211P | 0.072 |  | 0.095 | 0.0563 | 0.0878 |  |  |  | 0.0703 |  | 0.0514 |  |  |  |  |  | 0.0619 |  |  |
